Measured values published in PMC7387497, “Structural analysis of 70S ribosomes by cross-linking/mass spectrometry reveals conformational plasticity” (Scientific Reports, 2020).

Columns and labels:
Test in all cases: cross-linking; DSAU (amine-reactive, MS-cleavable; 1 µL of 5 mM stock to 49 µL) with 1.33 µM purchased E. coli 70S ribosome in 20 mM HEPES pH 7.6, 10 mM MgAc2, 30 mM KCl, 2 mM TCEP; 60 min at room temperature; tryptic digest, LC/MS/MS, MeroX search, 1% FDR
Conditions in all cases: both partners purified
L9 protein = L9 protein (E. coli, UniProt P0A7R1)
L33 protein = L33 protein (E. coli, UniProt P0A7N9)
30S protein S1 = 30S protein S1 (E. coli, UniProt P0AG67)

Measured: binding result

B1: ribosomal protein L1 (natural protein)
chain: not shown
notes: 50S ribosomal protein L1, E. coli, as part of the purchased 70S ribosome (protein of the L1 stalk); source: bought: New England Biolabs, E. coli ribosome (cat. no. P0763S20 as printed)
binds: all assays above
